The values that follow come from ChEMBL document CHEMBL4888484, “Replenishing the malaria drug discovery pipeline: Screening and hit evaluation of the MMV Hit Generation Library 1 (HGL1) against asexual blood stage Plasmodium falciparum ,using a nano luciferase reporter read-out” (2022).

Out of some 150,000 compounds screened, about 540 (0.36%) showed an effect of 50% or more. The list shows a part of the results.

For the test, the system named is Plasmodium falciparum. The experiment in a line: Primary screen in NF54 nanoGlo assay, in single point, at 2uM, 72h; a lower Z score goes with more inhibition. The format is functional, Erythrocyte. Particulars: timepoint 72 hour.
In the case of `CCN(CCc1ccccc1)Cc1noc(C2CCC2)n1`, the % Inhibition (commonly the relative decrease from the control value, in per cent) was 15% and the Z score was -2.05.

For the compound `COc1ccnc(N2CCCC3CN(C)CCC32)n1` (stereo not drawn), the “% Inhibition” value is reported as -4% and the Z score is 0.55.

In the case of `O=C(c1ccc(Cl)c(Cl)c1)N1[C@@H]2CC[C@H]1[C@H]1CNC[C@H]12`, the “% Inhibition” value is -13% and the Z score turned out to be 1.76.

Take `CC1CN(C2(n3nnc4ccccc43)CCC(C(C)(C)C)CC2)CC(C)O1` (stereo not drawn): the “% Inhibition” value is listed as -3% and the Z score amounted to 0.39.

In the case of `CC(=O)C1(c2ccccc2)CCN(C(=O)c2cn(C)c3ccccc23)CC1`, the “% Inhibition” value is given as -14% and the Z score stood at 1.62.

In the case of `O=C1NC(=O)C2(Cc3ccccc3N3CCCC32)C(=O)N1Cc1ccccc1` (stereo not drawn), the “% Inhibition” value is 2% and the Z score was -0.29.

`Cc1cnc(CN2CCC3(CCCC3)C2)cn1`: the “% Inhibition” value is reported as -12% and the Z score is listed as 2.36.

For the compound `COc1cc2ncc(C#N)c(N3CCC(C(=O)N4CCC5(CC4)OCCO5)CC3)c2cc1OC`, the “% Inhibition” value is given as -3% and the Z score was found to be 0.38.

In the case of `COc1cccc(CC(=O)N2CCN(C)CCC23CCOCC3)c1`, the “% Inhibition” value is on record as -11% and the Z score turned out to be 1.76.

Turning to `O=C(CN1CC2CCC(C2)C1)Nc1cccnn1`, the “% Inhibition” value is reported as -11% and the Z score stood at 1.77.

Regarding `Cc1nc(CCN2CCN(c3ccccc3F)CC2)cs1`, the “% Inhibition” value was -10% and the Z score stood at 1.21.

Take `Cc1ccc2[nH]c(N3CCN(C)CC3)nc2c1`: the “% Inhibition” value is listed as -2% and the Z score is recorded as 0.44.

In the case of `CCN(C(=O)CN(C)S(C)(=O)=O)[C@@H](C)Cc1ccc(OC)cc1`, the “% Inhibition” value is -11% and the Z score was 2.16.

For `COc1ccc(CC(=O)N2CCN(CCn3cccn3)CC2)cc1OC`, the “% Inhibition” value is reported as -7% and the Z score was determined as 1.4.

Regarding `CC(C)=CCN1CCN(C(=O)Cc2ccccc2O)[C@H]2CS(=O)(=O)C[C@H]21`, the “% Inhibition” value is recorded as -11% and the Z score is recorded as 1.24.

With `COc1ccnc(CN2C[C@H](C(=O)O)[C@@H](c3ccc(F)cc3)C2)c1OC`, the “% Inhibition” value is given as -13% and the Z score came to 1.68.

As for `N#Cc1ccc(OCC(=O)N2CCN(C3CC3)CC2)cc1`, the “% Inhibition” value is on record as -2% and the Z score is 0.28.

Regarding `CC1CCCCC1NC1CCN(C)CC1` (stereo not drawn), the “% Inhibition” value is on record as -6% and the Z score is 1.08.

As to `c1ccc(-c2cccc(N3CCNCC3)c2)cc1`, the “% Inhibition” value is reported as -15% and the Z score was 1.7.

`N#Cc1ccc(CN2CC(C(=O)c3ccc(F)cc3)C2)o1`: the “% Inhibition” value is given as -13% and the Z score is 1.69.

As to `C=CCCC(O)CNC1CCCCC1C` (stereo not drawn), the “% Inhibition” value is -13% and the Z score came to 2.06.

Take `COc1ccc(CC(=O)N2CCN(C[C@H](OCc3ccc(C#N)cc3)c3cccc(N4CCCC4)c3)CC2)cc1`: the “% Inhibition” value was -17% and the Z score was 2.46.

In the case of `CCOC(=O)c1cccnc1N1CCN2CCOC[C@@H]2C1`, the “% Inhibition” value is -3% and the Z score was found to be 0.27.

Take `COc1ccc([C@H](NC(=O)Oc2ccccc2)c2nccc3cc(OC)c(OC)cc23)cc1OC`: the “% Inhibition” value was -11% and the Z score is on record as 1.06.

As to `CCc1nc(C)c(CN2CCC[C@H](C(=O)c3cc(Cl)ccc3OC)C2)[nH]1`, the “% Inhibition” value is -3% and the Z score worked out at 0.52.

In the case of `COc1cccc([C@H]2Oc3ccccc3CC23C(=O)NC(=O)NC3=O)c1`, the “% Inhibition” value was -9% and the Z score is 1.17.

For `O=S(=O)(F)CCN1CCn2c(Cc3ccccc3)nnc2C1`, the “% Inhibition” value is on record as -3% and the Z score turned out to be 0.47.

`CN1CCC2(CCCN2C(=O)c2ccc(S(=O)(=O)F)cc2)CC1`: the “% Inhibition” value amounted to 0% and the Z score is 0.02.

On to `CCc1ccc(CN2C[C@H]3c4ccccc4OC[C@@]3(C(=O)O)C2)nc1`, for which the “% Inhibition” value is on record as -6% and the Z score came to 1.23.

Consider `Cc1ccccc1CC(=O)N1CCN(CC(=O)N2Cc3ccccc3[C@H](c3ccccc3)C2)CC1`, for which the “% Inhibition” value amounted to 0% and the Z score is 0.04.

`CCCCn1nc(C)nc1CN1CCN(CC)CC1`: the “% Inhibition” value is reported as -2% and the Z score came out at 0.22.

Turning to `COC(c1ccccc1Cl)C(C)NCC1CCOC1` (stereo not drawn), the “% Inhibition” value is reported as -15% and the Z score was 1.83.

Regarding `O=C(Nc1ccc(Oc2cccc(F)c2)nc1)N1CCC2(CC1)OCCO2`, the “% Inhibition” value was -15% and the Z score is listed as 2.36.

Regarding `CCn1c(=O)oc2cc(-c3noc(-c4cc(C)cc(C)c4)n3)ccc21`, the “% Inhibition” value was determined as 5% and the Z score was -0.45.

Take `COC(=O)C1(c2ccccc2)CCN(C(=O)c2cc(C)nn2C)CC1`: the “% Inhibition” value was -7% and the Z score is recorded as 1.02.

For `CN(C)c1ccc(CN2CCN(CCO)[C@@H]3CS(=O)(=O)C[C@@H]32)cn1`, the “% Inhibition” value is -3% and the Z score was found to be 0.58.

Turning to `O=C(O)[C@H]1CN(CCC(=O)N2CCc3ccccc3C2)C[C@@H]1c1ccc(F)cc1`, the “% Inhibition” value is on record as -7% and the Z score came out at 1.31.

`c1cc2c(cc1CCN1CCCC1)CCO2`: the “% Inhibition” value was -12% and the Z score is reported as 1.27.

Take `Cc1cc(CN2CCCC3(C2)OCCO3)c(C)o1`: the “% Inhibition” value was -1% and the Z score was 0.12.

In the case of `Cc1noc(C)c1CN1CC2CC1CO2` (stereo not drawn), the “% Inhibition” value is given as -10% and the Z score worked out at 1.33.

Consider `CCC(=O)N1CCc2cc(N3C[C@@H](C(=O)N4CCC5(CC4)OCCO5)CC3=O)ccc21`, for which the “% Inhibition” value is recorded as -7% and the Z score was 1.38.

For the compound `CC(C)(C)OC(=O)N1C2CCC1CN(Cc1ccccn1)CC2` (stereo not drawn), the “% Inhibition” value is listed as -13% and the Z score was determined as 1.66.

As to `CNC(=O)c1cccnc1N1C[C@H]2COc3ccccc3C[C@@]2(C(=O)O)C1`, the “% Inhibition” value is recorded as -23% and the Z score was found to be 2.5.

Regarding `Cc1nn(C[C@H](C)N(C)Cc2cscn2)c(C)c1Cl`, the “% Inhibition” value is -4% and the Z score came out at 0.69.

Take `Cn1c(=O)oc2c(C(=O)N[C@H]3CC(C)(C)c4ccccc43)cccc21`: the “% Inhibition” value is -4% and the Z score is recorded as 0.68.

As to `CC(C)N(CCO)CCc1ccc(F)cc1Cl`, the “% Inhibition” value worked out at 0% and the Z score is -0.1.

Regarding `COCCn1nnnc1[C@]1(N2CCCC2)CCN(C(=O)Cc2cccc(OC)c2)C1`, the “% Inhibition” value is -3% and the Z score turned out to be 0.45.

In the case of `C=CC1CN2CCC1CC2c1[nH]c2ccccc2c1CCO` (stereo not drawn), the “% Inhibition” value is listed as -42% and the Z score is 4.88.

Take `Cc1cc2[nH]c(CN3CCN4C(=O)OC[C@H]4C3)cc(=O)n2n1`: the “% Inhibition” value was found to be 4% and the Z score is -0.74.

As to `CNC(=O)c1ccc(CN2C[C@H]3c4ccccc4OC[C@@]3(C(=O)O)C2)cc1`, the “% Inhibition” value is reported as -12% and the Z score is given as 1.19.

Take `Cc1[nH]c2ccccc2c1C(=O)[C@H](C)N1CCC(n2cncn2)CC1`: the “% Inhibition” value is recorded as 6% and the Z score is listed as -0.87.

Take `CC(C)C(Cc1ccc(F)cc1)NC(=O)CC1CC2CCC(C1)N2` (stereo not drawn): the “% Inhibition” value is on record as -16% and the Z score is recorded as 1.6.

In the case of `CCn1cc(C(=O)N2C[C@@H](c3cccc(F)c3F)[C@@H]3[C@H]2C2CCN3CC2)cn1`, the “% Inhibition” value is on record as -2% and the Z score was 0.33.

As for `O=C(c1cncc(O)c1)N1C[C@H](c2ccccc2)C2(CCC2)C1`, the “% Inhibition” value turned out to be 1% and the Z score is listed as -0.26.
